# Test results from PubChem BioAssay (NCI).
#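 The compound was tested at five concentrations on cells cultured in 96-well plates, with a 48-hour exposure period. Definition used: TGI = concentration required for complete inhibition of growth.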
# System: NCI-H322M lung
# Assay: growth of human tumour cells (NCI), 48 h
smiles,measurement,value
N#CC1=C(N)OC(c2ccc([N+](=O)[O-])cc2)C1(C#N)C#N (stereo unspecified),TGI,38.1 µM
